The name of at least one read-out is uncertain.
What follows are compounds tested on PAXF1657 control empty vector cell line (assay: 7-day proliferation assay, PAXF1657 control empty vector cell line (Example 9)). Conditions: Cell Line: PAXF1657 empty vector (EV) cell line.
Assay type: cell-based
Outline: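 Viability by CellTiter-Glo after 7 days at 37° C., with compound-containing media replaced on day 3. Cells (500/well, RPMI1640 + 10% FBS) were PAXF1657 pairs: GRK2 overexpression vs empty vector, or CRISPR GRK2 knockout vs non-targeting clones; doses 30 μM-0.0002 μM final, 10 points, 0.3% DMSO.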

Point of comparison: `O=C(NCc1cccnc1C(F)(F)F)c1cccc(NCc2nnc(-c3ccncn3)n2CCO)c1`, “D: 7-day proliferation assay: % Minimum GeoMean (%)” value 21.4%. Against it:
- Cn1c(CNc2cccc(C(=O)NCc3cc[nH]n3)c2)nnc1-c1ccncn1 — higher, 70.6%
- CCCn1c(CNc2cccc(C(=O)NCc3ccccc3C(F)(F)F)n2)nnc1-c1ccncn1 — higher, 34%
- Cc1nc(C)c(CNC(=O)c2cccc(NCc3nnc(-c4ccncn4)n3C)c2)s1 — higher, 36.9%
- CC(NC(=O)c1cccc(NCc2nnc(-c3ccncn3)n2C)c1)c1ccn(C)n1 (stereo not shown) — higher, 71.3%
- COc1cc(F)cc(CNC(=O)c2cccc(NCc3nnc(-c4ccncn4)n3C)c2)c1 — higher, 43.3%
- Cc1ccccc1C(CO)NC(=O)c1cccc(NCc2nnc(-c3ccncn3)n2C)c1 (stereo not shown) — higher, 46.8%
- Cn1c(CNc2cccc(C(=O)NCc3ccc(F)cc3F)c2)nnc1-c1ccncn1 — higher, 27.2%
- Cn1c(CNc2cccc(C(=O)NCc3ccc4c(c3)CCO4)c2)nnc1-c1ccncn1 — higher, 52.8%
- Cn1c(CNc2cccc(C(=O)NCc3cc(F)ccc3F)c2)nnc1-c1ccncn1 — higher, 42%
- Cn1c(CNc2cccc(C(=O)NCc3cccc(F)c3F)c2)nnc1-c1ccncn1 — higher, 61.5%
- COc1cccc(CNC(=O)c2cccc(NCc3nnc(-c4ccncn4)n3C)c2)c1F — higher, 64.5%
- COc1cccc(CNC(=O)c2cccc(NCc3nnc(-c4ccncn4)n3C)c2)c1OC — higher, 45%
- COc1ccccc1CNC(=O)c1cccc(NCc2nnc(-c3ccncn3)n2C)c1 — higher, 72.3%
- Cn1c(CNc2cccc(C(=O)NCc3ccnc(C(F)(F)F)c3)c2)nnc1-c1ccncn1 — higher, 79%
- CC(NC(=O)c1cccc(NCc2nnc(-c3ccncn3)n2C)c1)c1nccn1C (stereo not shown) — higher, 75.1%
- COc1ccnc(CNC(=O)c2cccc(NCc3nnc(-c4ccncn4)n3C)c2)c1 — higher, 76.6%
- CCn1ncnc1CNC(=O)c1cccc(NCc2nnc(-c3ccncn3)n2C)c1 — higher, 75.1%
- O=C(NC1(c2ccccc2)CCOCC1)c1cccc(NCc2nnc3n2CCOc2cnccc2-3)c1 — lower, 12.1%
- COc1ncccc1CNC(=O)c1cccc(NCc2nnc3n2CCOc2cnccc2-3)c1 — higher, 29.4%
- O=C(NCc1cccc2c1OCC2)c1cccc(NCc2nnc(-c3ccncc3)n2CCO)c1 — higher, 69.5%
- O=C(NCc1cccc(F)c1)c1cccc(NCc2nnc(-c3ccncc3)n2CCO)c1 — higher, 83.2%
- O=C(N[C@H]1CCOc2ccccc21)c1cccc(NCc2nnc(-c3ccncc3)n2CCO)c1 — higher, 58.8%
- O=C(NCc1cccnc1C(F)(F)F)c1cccc(NCc2nnc(-c3ccncc3)n2CCO)c1 — higher, 92.1%
- COc1ccc(CNC(=O)c2cccc(NCc3nnc(-c4ccncc4)n3CCO)c2)c(F)c1 — higher, 78.9%
- COc1cccc(OC)c1CNC(=O)c1cccc(NCc2nnc(-c3ccncc3)n2CCO)c1 — higher, 57.9%
- CCOc1ccccc1CNC(=O)c1cccc(NCc2nnc(-c3ccncc3)n2CCO)c1 — higher, 53.3%
- COc1ncccc1CNC(=O)c1cccc(NCc2nnc(-c3ccncc3)n2CCO)c1 — higher, 77%
- O=C(NCc1c(F)cccc1F)c1ccnc(NCc2nnc(-c3ccncc3)[nH]2)c1 — higher, 95.4%
- CCc1cnccc1CNC(=O)c1cccc(NCc2nnc(-c3ccncc3Cl)n2C)c1 — higher, 76.6%
- CCc1cnccc1CNC(=O)c1cccc(NCc2nnc(-c3ccncc3F)n2C)c1 — higher, 57.2%
- Cn1c(CNc2cccc(C(=O)N[C@H]3CCOc4ccccc43)c2)nnc1-c1ccncc1F — higher, 40.4%
- O=C(NCc1cccc2c1OCC2)c1cccc(NCc2nnc(-c3ccncn3)n2CCCO)c1 — higher, 58.7%
- O=C(NCc1cccnc1C(F)(F)F)c1cccc(NCc2nnc(-c3ccncn3)n2CCCO)c1 — higher, 44.6%
- Cn1c(CNc2cccc(C(=O)N[C@@H](CO)c3cc(F)ccc3F)c2)nnc1-c1ccncn1 — higher, 68%
- Cn1c(CNc2cccc(C(=O)NC(CO)c3ccc(F)cc3)c2)nnc1-c1ccncn1 (stereo not shown) — higher, 64.3%
- Cn1c(CNc2cccc(C(=O)N[C@H]3c4ccccc4C[C@H]3O)c2)nnc1-c1ccncn1 — higher, 70%
- Cc1cncc(CNC(=O)c2cccc(NCc3nnc(-c4ccncn4)n3C)c2)c1 — higher, 65.1%
- Cc1ccn2c(CNC(=O)c3cccc(NCc4nnc(-c5ccncn5)n4C)c3)nnc2c1 — higher, 69.7%
- CC(NC(=O)c1cccc(NCc2nnc(-c3ccncn3)n2C)c1)c1ccncc1 (stereo not shown) — higher, 46.2%
- Cc1nn(C)cc1CNC(=O)c1cccc(NCc2nnc(-c3ccncn3)n2C)c1 — higher, 64.8%
- Cc1cc(CNC(=O)c2cccc(NCc3nnc(-c4ccncn4)n3C)c2)n(C)n1 — higher, 58.9%
- CC(NC(=O)c1cccc(NCc2nnc(-c3ccncn3)n2C)c1)c1ccccn1 (stereo not shown) — higher, 76%
- Cn1ccc(CNC(=O)c2cccc(NCc3nnc(-c4ccncn4)n3C)c2)n1 — higher, 57.9%
- Cn1c(CNc2cccc(C(=O)NCc3cc(Cl)ccn3)c2)nnc1-c1ccncn1 — higher, 31.9%
- Cn1c(CNc2cccc(C(=O)NCc3cnc4ccccn34)c2)nnc1-c1ccncn1 — higher, 57.1%
- Cn1c(CNc2cccc(C(=O)NCc3cnccn3)c2)nnc1-c1ccncn1 — higher, 87.1%
- CC(NC(=O)c1cccc(NCc2nnc(-c3ccncn3)n2C)c1)c1cn[nH]c1 (stereo not shown) — higher, 58.8%
- Cc1nc(C(C)NC(=O)c2cccc(NCc3nnc(-c4ccncn4)n3C)c2)no1 (stereo not shown) — higher, 77.2%
- Cc1cc(CNC(=O)c2cccc(NCc3nnc(-c4ccncn4)n3C)c2)nn1C — higher, 38.8%
- Cn1c(CNc2cccc(C(=O)NCc3ccnnc3)c2)nnc1-c1ccncn1 — higher, 62.9%
- Cn1c(CNc2cccc(C(=O)NCc3cocn3)c2)nnc1-c1ccncn1 — higher, 81.9%
- Cn1c(CNc2cccc(C(=O)NCc3cscn3)c2)nnc1-c1ccncn1 — higher, 80.8%
- Cn1c(CNc2cccc(C(=O)NCc3ccon3)c2)nnc1-c1ccncn1 — higher, 82.9%
- Cn1c(CNc2cccc(C(=O)NCc3nc(C4CC4)no3)c2)nnc1-c1ccncn1 — higher, 66.9%
- Cc1cccc2nnc(CNC(=O)c3cccc(NCc4nnc(-c5ccncn5)n4C)c3)n12 — higher, 29.3%
- Cn1cc(-c2cc(CNC(=O)c3cccc(NCc4nnc(-c5ccncn5)n4C)c3)ccn2)cn1 — higher, 89%
- Cn1cc(CNC(=O)c2cccc(NCc3nnc(-c4ccncn4)n3C)c2)cn1 — higher, 70%
- CCc1cnccc1CNC(=O)c1cccc(NCc2nnc(-c3ccncn3)n2CCCNC)c1 — higher, 87.8%
- Cn1c(CNc2cc(C(=O)NCc3cnc4ccccn34)ccn2)nnc1-c1ccncn1 — higher, 70.2%
- Cc1cccc2ncc(CNC(=O)c3ccnc(NCc4nnc(-c5ccncn5)n4C)c3)n12 — higher, 44%
- Cc1cc2c(cc1CNC(=O)c1ccnc(NCc3nnc(-c4ccncn4)n3C)c1)OCCO2 — higher, 45.0%
- Cn1c(CNc2cc(C(=O)NCc3cccnc3C(F)(F)F)ccn2)nnc1-c1ccncn1 — higher, 63.7%
- Cc1cccc([C@H](CO)NC(=O)c2ccnc(NCc3nnc(-c4ccncn4)n3C)c2)c1 — higher, 65.9%
- Cc1cccc([C@@H](CO)NC(=O)c2ccnc(NCc3nnc(-c4ccncn4)n3C)c2)c1 — higher, 52.8%
- Cn1c(CNc2cc(C(=O)N[C@H]3COc4ccccc43)ccn2)nnc1-c1ccncn1 — higher, 49.9%
- Cn1c(CNc2cc(C(=O)N[C@@H]3COc4ccccc43)ccn2)nnc1-c1ccncn1 — higher, 42.3%
- Cn1c(CNc2cc(C(=O)N[C@H]3CCOc4c(Cl)cccc43)ccn2)nnc1-c1ccncn1 — higher, 71.3%
- Cn1c(CNc2cc(C(=O)N[C@@H]3CCOc4c(Cl)cccc43)ccn2)nnc1-c1ccncn1 — higher, 45.1%
- C[C@@H](NC(=O)c1ccnc(NCc2nnc(-c3ccncn3)n2C)c1)c1ncccc1Cl — higher, 55.9%
- C[C@H](NC(=O)c1ccnc(NCc2nnc(-c3ccncn3)n2C)c1)c1ncccc1Cl — higher, 38.3%
- CCc1cnccc1CNC(=O)c1cccc(NCc2nnc(-c3ccncn3)n2CCCOC)c1 — higher, 63.1%
- O=C(NCc1cccc2c1OCC2)c1cccc(NCc2nnc(-c3ccncn3)n2CCO)c1 — lower, 17.4%
- Cc1cccnc1CNC(=O)c1cccc(NCc2nnc(-c3ccncn3)n2CCO)c1 — lower, 20.9%
- O=C(N[C@H]1CCOc2ccccc21)c1cccc(NCc2nnc(-c3ccncn3)n2CCO)c1 — higher, 49.4%
- O=C(NCc1ccncc1Cl)c1cccc(NCc2nnc(-c3ccncn3)n2CCO)c1 — higher, 52.6%
- O=C(NCc1cnc2ccccn12)c1cccc(NCc2nnc(-c3ccncn3)n2CCO)c1 — higher, 52%
- Cc1cccc2ncc(CNC(=O)c3cccc(NCc4nnc(-c5ccncn5)n4CCO)c3)n12 — lower, 18.3%
- Cc1cc2c(cc1CNC(=O)c1cccc(NCc3nnc(-c4ccncn4)n3CCO)c1)OCCO2 — higher, 27.8%
